The results in this text go back to the BET-seq Pho4 binding data (Le et al. 2018).

This is one part of the list. These are noisy estimates, calculated here from bound and input reads.

The assay deals with T1, Pho4 (S. cerevisiae) (UniProt P07270).
T1 sequence: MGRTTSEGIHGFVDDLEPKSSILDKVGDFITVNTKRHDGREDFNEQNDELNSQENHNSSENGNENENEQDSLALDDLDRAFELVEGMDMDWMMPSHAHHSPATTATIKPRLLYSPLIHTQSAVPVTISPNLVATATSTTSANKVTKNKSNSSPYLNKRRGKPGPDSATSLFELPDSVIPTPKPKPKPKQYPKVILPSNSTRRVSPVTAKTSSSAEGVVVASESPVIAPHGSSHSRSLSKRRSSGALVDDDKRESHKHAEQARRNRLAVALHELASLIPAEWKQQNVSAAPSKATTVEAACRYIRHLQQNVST
Kind of assay: relative binding free energy (BET-seq); higher = weaker binding. The note with it: reference: library average.
Consider AGGGTCACGTGGATTG, for which the “relative binding free energy” value stood at 0.15 kcal/mol. GTACGCACGTGGATGG: the “relative binding free energy” value was -0.1 kcal/mol.

As for TGAATCACGTGTCAGG, the “relative binding free energy” value was found to be 0.21 kcal/mol. For GTCTACACGTGTTGTG, the “relative binding free energy” value stood at 0.12 kcal/mol. Next, CGCGGCACGTGAGTGG: 0.05 kcal/mol. TGAAACACGTGGTGGT: the “relative binding free energy” value is -0.12 kcal/mol. TTTTACACGTGTTCGA: the “relative binding free energy” value came to 0.07 kcal/mol. Consider ACGGTCACGTGTTTTT, for which the “relative binding free energy” value amounted to 0.16 kcal/mol. For GGTAGCACGTGTCGTG, the “relative binding free energy” value was -0.06 kcal/mol. The same measure for CTTTACACGTGATGTT: 0.14 kcal/mol. AAGGGCACGTGCGGTA: the “relative binding free energy” value was -0.28 kcal/mol.

For GATGGCACGTGCTTGT, the “relative binding free energy” value was -0.16 kcal/mol. CGTTGCACGTGCCGGG: the “relative binding free energy” value is -0.22 kcal/mol.

In the case of ATTTGCACGTGGTGTG, the “relative binding free energy” value was -0.1 kcal/mol.

On to GAGGCCACGTGTTGGG, for which the “relative binding free energy” value was found to be 0.01 kcal/mol. Next, GGATTCACGTGGGGCA: 0.21 kcal/mol. With TTCATCACGTGGGGTC, the “relative binding free energy” value worked out at 0.13 kcal/mol. Regarding GGGAGCACGTGTGCTG, the “relative binding free energy” value was -0.11 kcal/mol. Next, GGTCGCACGTGAGCTG: 0.24 kcal/mol; GTAGGCACGTGGTTTC: -0.16 kcal/mol; AGTGTCACGTGATCGT: 0.14 kcal/mol.

Turning to TAGATCACGTGTAGAG, the “relative binding free energy” value is 0.18 kcal/mol. Consider CTTATCACGTGGGTTA, for which the “relative binding free energy” value was 0.08 kcal/mol. As for TGGTGCACGTGAAGGT, the “relative binding free energy” value was 0.35 kcal/mol. In the case of GTTTACACGTGCTTAT, the “relative binding free energy” value amounted to 0.07 kcal/mol. Next, ACTTGCACGTGTTTGT: -0.03 kcal/mol; ATTTTCACGTGACAAT: 0.35 kcal/mol. GGGTTCACGTGATGGG: the “relative binding free energy” value stood at 0.52 kcal/mol. GTTACCACGTGGGGAG: the “relative binding free energy” value was -0.15 kcal/mol.

TAGGGCACGTGATAAT: the “relative binding free energy” value came out at 0.02 kcal/mol. With GTTACCACGTGGGTGG, the “relative binding free energy” value was -0.22 kcal/mol. As for TGATTCACGTGGAGCT, the “relative binding free energy” value worked out at 0.24 kcal/mol. For the sequence AGCTGCACGTGGTGTA, the “relative binding free energy” value was -0.21 kcal/mol. For TGGGTCACGTGGTTTG, the “relative binding free energy” value was determined as 0.21 kcal/mol. Next, GGTGCCACGTGCGCGG: -0.2 kcal/mol; AAGTTCACGTGAGTTA: 0.34 kcal/mol; TTAAGCACGTGAGGAA: 0.22 kcal/mol.

As to TTAAGCACGTGGAATA, the “relative binding free energy” value was found to be 0.04 kcal/mol. Turning to GATGTCACGTGCTAGG, the “relative binding free energy” value was determined as 0.01 kcal/mol. Consider ATTGTCACGTGTTAAA, for which the “relative binding free energy” value stood at 0.08 kcal/mol.

As to AAATACACGTGAAGTG, the “relative binding free energy” value stood at 0.25 kcal/mol.

Consider CTAGGCACGTGTGTGC, for which the “relative binding free energy” value is -0.11 kcal/mol. Take GGGAACACGTGTTAGG: the “relative binding free energy” value was 0.07 kcal/mol. The same measure for CGTTTCACGTGAGTTT: 0.31 kcal/mol. Next, GTTAGCACGTGTATGA: 0.05 kcal/mol; ATAGGCACGTGGCTTT: -0.18 kcal/mol; AATCGCACGTGGGGTT: -0.11 kcal/mol. Take GGTCTCACGTGGTAGA: the “relative binding free energy” value stood at 0.29 kcal/mol. The same measure for TTTTTCACGTGTCCAT: 0.24 kcal/mol; for TATGCCACGTGTTGGA: -0.17 kcal/mol; for ATTGGCACGTGTATTG: -0.01 kcal/mol. As for TGTCTCACGTGTAAGT, the “relative binding free energy” value came out at 0.2 kcal/mol. In the case of CGTTTCACGTGGATAT, the “relative binding free energy” value turned out to be 0.32 kcal/mol.

Regarding TAATCCACGTGTGTGG, the “relative binding free energy” value was found to be 0.12 kcal/mol.

For the sequence TTGTTCACGTGGATCG, the “relative binding free energy” value came to 0.22 kcal/mol. For the sequence AAGGTCACGTGCGGTG, the “relative binding free energy” value is -0.1 kcal/mol. Consider GATTTCACGTGATGTT, for which the “relative binding free energy” value worked out at 0.41 kcal/mol. Regarding GGTCTCACGTGGGCGC, the “relative binding free energy” value came to 0.22 kcal/mol. Take GGATTCACGTGTAGCG: the “relative binding free energy” value stood at 0.3 kcal/mol. The same measure for AGTAACACGTGGTCAT: 0.03 kcal/mol; for AGTTACACGTGTGTTA: 0.25 kcal/mol. Take GTTTCCACGTGTTTGT: the “relative binding free energy” value is 0.08 kcal/mol. On to TGGTGCACGTGCGAGG, for which the “relative binding free energy” value was determined as 0.01 kcal/mol.
